Assay results reported in patent US20190002581A1 (SUTRO BIOPHARMA, published 2019).

T1: human EpCAM-His (analyte of the Biacore experiments) (human, UniProt P16422 24-265)
T1 construct: also called Human EpCAM (Biacore); hEpCAM
T1 sequence: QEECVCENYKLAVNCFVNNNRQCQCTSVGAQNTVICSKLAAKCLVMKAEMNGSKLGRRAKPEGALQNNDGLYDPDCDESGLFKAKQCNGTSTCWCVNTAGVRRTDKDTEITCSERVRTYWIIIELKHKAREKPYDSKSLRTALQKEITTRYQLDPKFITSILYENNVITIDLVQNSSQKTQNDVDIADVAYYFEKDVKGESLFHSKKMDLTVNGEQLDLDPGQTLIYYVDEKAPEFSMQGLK

T2: cynomolgus EpCAM expressed on stably transfected CHO cells (cynomolgus monkey, UniProt Q1WER1 26-314 (rhesus entry))
T2 construct: also called Cyno EpCAM (CHO)
T2 sequence: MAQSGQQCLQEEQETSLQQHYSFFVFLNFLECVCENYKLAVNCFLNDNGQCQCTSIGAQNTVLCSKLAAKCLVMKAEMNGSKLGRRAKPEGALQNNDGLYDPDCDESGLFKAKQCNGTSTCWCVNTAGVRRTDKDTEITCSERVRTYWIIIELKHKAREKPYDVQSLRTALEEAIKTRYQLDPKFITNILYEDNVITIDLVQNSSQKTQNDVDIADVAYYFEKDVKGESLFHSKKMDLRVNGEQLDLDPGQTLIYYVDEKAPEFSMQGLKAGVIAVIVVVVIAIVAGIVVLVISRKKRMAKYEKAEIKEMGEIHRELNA

T3: human EpCAM expressed on cells (stably transfected CHO cells, HCT-116, JIMT1) (human, UniProt P16422 24-314)
T3 construct: also called Human EpCAM (CHO); Human EpCAM (HCT-116)
T3 sequence: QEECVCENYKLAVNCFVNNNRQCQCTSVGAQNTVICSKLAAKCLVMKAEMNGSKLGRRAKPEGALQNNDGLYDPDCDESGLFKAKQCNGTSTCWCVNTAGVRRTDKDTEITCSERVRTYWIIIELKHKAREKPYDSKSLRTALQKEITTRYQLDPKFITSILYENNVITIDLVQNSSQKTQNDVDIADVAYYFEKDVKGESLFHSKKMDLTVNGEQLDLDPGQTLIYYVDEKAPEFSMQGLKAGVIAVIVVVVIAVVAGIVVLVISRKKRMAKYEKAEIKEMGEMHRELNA

T4: human EpCAM protein adsorbed on the plate (ELISA) (human, UniProt P16422 24-265)
T4 construct: also called Human EpCAM (ELISA); recombinant human EpCAM extracellular domain (ECD)
T4 sequence: T1 sequence

T5: cynomolgus EpCAM (Biacore) (cynomolgus monkey, limits assumed)
T5 construct: Construct used for the cyno Biacore measurements is not described; also called Cyno EpCAM (Biacore); cEpCAM
T5 chain: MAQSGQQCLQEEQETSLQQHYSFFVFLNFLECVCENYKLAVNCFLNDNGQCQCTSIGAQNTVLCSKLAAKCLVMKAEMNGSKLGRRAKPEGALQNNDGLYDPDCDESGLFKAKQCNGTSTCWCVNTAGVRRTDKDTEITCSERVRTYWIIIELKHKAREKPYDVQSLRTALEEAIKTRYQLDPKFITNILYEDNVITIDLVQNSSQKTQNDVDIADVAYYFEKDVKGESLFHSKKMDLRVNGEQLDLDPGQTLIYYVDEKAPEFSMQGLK

B1: SRP1332-A05 scFv-Fc antibody (Fc fusion)
chain: MELVMTQSPSSLTVTAGEKVTMSCKSSQSLLNSGNQKNYLTWYQQKPGQPPKLLIYWASTRESGVPDRFTGSGSGTDFTLTISSVQAEDLAVYYCQNDLSYPLTFGAGTKLEIKGGGGSGGGGSGGGGSEVQLLEQSGAELVRPGTSVKISCKASDYAFANRWLGWVKQRPGHGLEWIGDIFPGSGNIHYNEKFKGKATLTADKSSSTAYMQLSSLTFEDSAVYFCARLRNWEGPMDYWGQGTTVTVSSAAGSDQ[letters of human IgG1 Fc with changes omitted]GSGDYKDDDDKGSGHHHHHH
notes: scFv-Fc format (VL-VH order); the entry holds scFv, IgG1 Fc, FLAG and His tags
B2: SRP1332-C01 scFv-Fc antibody (Fc fusion)
chain: MELVMTQSPSSLTVTAGEKVTMSCKSSQSLLNSGNQKNYLTWYQQKPGQPPKLLIYWASTRESGVPDRFTGSGSGTDFTLTISSVQAEDLAVYYCQNDYRYPLTFGAGTKLEIKGGGGSGGGGSGGGGSEVQLLEQSGAELVRPGTSVKISCKASGYAFTNSWLGWVKQRPGHGLEWIGDIFPGSGNIHYNEKFKGKATLTADKSSSTAYMQLSSLTFEDSAVYFCARLRNWDMPMDYWGQGTTVTVSSAAGSDQ[letters of human IgG1 Fc with changes omitted]GSGDYKDDDDKGSGHHHHHH
notes: as for B1
B3: SRP1332-F11 scFv-Fc antibody (Fc fusion)
chain: MELVMTQSPSSLTVTAGEKVTMSCKSSQSLLNSGNQKNYLTWYQQKPGQPPKLLIYRASTRESGVPDRFTGSGSGTDFTLTISSVQAEDLAVYYCQNDSSYPLTFGAGTKLEIKGGGGSGGGGSGGGGSEVQLLEQSGAELVRPGTSVKISCKASGYAFANRWLGWVKQRPGHGLEWIGDIFPGSGNIHYNEKFKGKATLTADKSSSTAYMQLSSLTFEDSAVYFCARLRNWEGPMDYWGQGTTVTVSSAAGSDQ[letters of human IgG1 Fc with changes omitted]GSGDYKDDDDKGSGHHHHHH
notes: as for B1
B4: SRP1557-E11 scFv-Fc antibody (Fc fusion)
chain: MEVQLLESGGGLVQPGGSLRLSCAASGFTFRGSSMSWVRQAPGKGLEWVGAIDGGEGSTGYADSVKGRFTINRDNSKNTLYLQMNSLRAEDTAVYYCAKGWHPQSLYDLDYWGQGTLVTVSSGGGGSGGGDSGGGGSEIVLTQSPGTLSLSPGERATLSCRASQPVPNTTLAWYQQKPGQAPRLLIYGASSRATGIPDRFSGSGSGTDFTLTISRLEPEDFAAYYCQQLVPSPPTFGQGTKVEIKAAGSDQ[letters of human IgG1 Fc with changes omitted]GSGDYKDDDDKGSGHHHHHH
notes: scFv-Fc format; the entry holds scFv, IgG1 Fc, FLAG and His tags
B5: SRP1557-H04 scFv-Fc antibody (Fc fusion)
chain: MEVQLLESGGGLVQPGGSLRLSCAASGFTFSVTSMSWMRQAPGKGLEWVGAIAGGEGSTGYADSVKGRFTISRDNSKNTLYLQMNSLRAEDTAVYYCAKGWHPQTLYDLDYWGQGTLVTVSSGGGGSDGGGSGGGGSEIVLTQGPSTLSLSPGERATLSCRASQSVSTGYLAWYQQKPGQAPRLLIYGASSRATGIPDRFSGSGSGTDFTLTISRLEPEDFAVYYCQQLVTRPPTFGQGTKVEIKAAGSDQ[letters of human IgG1 Fc with changes omitted]GSGDYKDDDDKGSGHHHHHH
notes: as for B4
B6: SRP1557-H10 scFv-Fc antibody (Fc fusion)
chain: MEVQLLESGGGLVQPGGSLRLSCAASGFTFSGSSMSWVRQAPGKGLEWVGAIDGGEGSTGYADSVKGRFTISRDNSKNTLYLQMNSLRAEDTAVYYCAKGWHPQSMYDLDYWGQGTLVTVSSGGGGSGGGGSGGGGSEIVLTQSPGTLSLSPGERATMSCRASQVLSSSSLAWYQQKPGQAPRLLIYGASSRATGIPDRFSGSGSGTDFTLTISRLEPEDFAVYYCQQLVTAPPTFGQGTKVEIKAAGSDQ[letters of human IgG1 Fc with changes omitted]GSGDYKDDDDKGSGHHHHHH
notes: as for B4
B7: SRP1557-F01 scFv-Fc antibody (Fc fusion)
chain: MEVQLLESGGGLVQPGGSLRLSCAASGFTFSGSSMSWVRQAPGKGLEWVGAIDGGEGSTGYADSVKGRFTISRDNSKNTLYLQMNSLRAEDTAVYYCAKGWHPQTLYDLDYWGQGTLVTVSSGGGGSGGGGSGGGGSEIVLTQSPGTLSLSPGERATLSCRASQSVSSSKLAWYQQKPGQAPRLLIYGASSRATGIPDRFSGYGSGTDFTLTISRLEPEDFAVYYCQQLETIPPTFGQGTKVEIKAAGSDQ[letters of human IgG1 Fc with changes omitted]GSGDYKDDDDKGSGHHHHHH
notes: as for B4

These binders were tested against T1, human EpCAM-His (analyte of the Biacore …) (assay: SPR (Biacore), scFv-Fc captured on anti-FLAG, human EpCAM-His as analyte, 25 C).
Method: Monoclonal Anti-FLAG M2 IgG (Sigma-Aldrich # F9291) was immobilized onto a CMS chip (GE Life Sciences) using amine coupling chemistry (from Amine Coupling Kit, GE Life Sciences). The immobilization steps were carried out at a flow rate of 25 μL/min in 1×HBS-EP+ buffer (GE Life Sciences; 10× Stock diluted before use). The sensor surfaces were activated for 7 min with a mixture of NHS (0.05 M) and EDC (0.2 M). The Anti-Flag M2 IgG was injected over all 4 flow cells at a concentration of 25 μg/mL in 10 mM sodium acetate, pH 4.5, for 7 min. Ethanolamine (1 M, pH 8.5) was injected for 7 min to block any remaining activated groups. An average of 12,000 response units (RU) of capture antibody was immobilized on each flow cell.
Off-rate and Kinetic binding experiments were performed at 25° C. using 1×HBS-EP+ buffer. Test and control antibodies were injected over the Anti-FLAG surface at concentrations of 5-10 μg/mL for 12 seconds at a flow rate of 10 μL/min on flow cells 2, 3 and 4, followed by a buffer wash for 30 seconds at the same flow rate. Kinetic characterization of antibody samples was carried out with a single concentration of antigen (for off-rate ranking) or a 1:2 dilution series of antigen (for kinetic characterization) and 1 injection of 0 nM antigen. After capturing ligand (antibody) on the anti-FLAG surface, the analyte (human EpCAM-His) was bound at 50, 25, 12.5, 6.25 and 0 nM for 180 seconds, followed by a 600 second dissociation phase at a flow rate of 50 μl/min. Between each ligand capture and analyte binding cycle, regeneration was carried out using 2 injections of 10 mM glycine pH 2.0 for 30 seconds at 30 μL/min, followed by a 30 second buffer wash step.
The data were fit with the Biacore T200 Evaluation software, using a 1:1 Langmuir binding model. KD (affinity, nM) was determined as a ratio of the kinetic rate constants calculated from the fits of the association and dissociation phases.

| Kd [nM] | koff [s⁻¹] | kon [M⁻¹ s⁻¹] | Binder |
| --- | --- | --- | --- |
| 1.45 | 0.000297 | 205000 | B1 |
| 0.904 | 0.000257 | 284000 | B2 |
| 1.41 | 0.000257 | 182000 | B3 |
| 3.44 | 0.000604 | 176000 | B4 |
| 2.54 | 0.000787 | 310000 | B5 |
| 1.19 | 0.000306 | 257000 | B6 |
| 7.21 | 0.00169 | 235000 | B7 |

What follows are binders tested against T2, cynomolgus EpCAM expressed on stably … (assay: flow cytometry, CHO cells expressing cyno EpCAM).
Method: (§1) CHO-k cells were transfected to stably express EpCAM on the cell surface. CHO parental and stably transfected CHO-EpCAM (human, cynomolgus and mouse EpCAM-expressing cells) cells were washed with DPBS, detached with Accutase™ (BD Biosciences; San Jose, Calif.), and resuspended in ice-cold FACS buffer (DPBS buffer supplemented with 0.5% bovine serum albumin).
(§2) A total of 200,000 cells per 96-well were incubated on ice for 60 mins with 100 nM of test antibodies diluted in FACS buffer. Cells were washed twice with FACS buffer and incubated on ice for 30 mins with R-phycoerythrin AffiniPure F(ab′)₂ fragment, goat anti-Human IgG, Fcγ fragment specific secondary detection antibody (Jackson ImmunoResearch Laboratories, West Grove, Pa.) diluted at 1:200 with FACS buffer. Cells were washed twice with FACS buffer, fixed in 4% paraformaldehyde in PBS (Santa Cruz Biotechnology; Dallas, Tex.) for 20 mins on ice in the dark, washed twice with FACS buffer and analyzed using the BD LSR II Flow Cytometer (BD Biosciences; San Jose, Calif.). Data were analyzed using FlowJo (FlowJo, LLC; Ashland, Oreg.) to determine mean fluorescence intensities. Binding constants were calculated using the statistical software, GraphPad Prism (GraphPad Software; La Jolla, Calif.) using the nonlinear regression equation, one site-specific binding with Hill slope. Secondary antibody alone was used as a control, in addition to measuring non-specific EpCAM antibody binding to CHO parental cells. For some variants, binding to human tumor cells, HCT 116 and JIMT1 cells were also evaluated.

| Kd [nM] | Binder |
| --- | --- |
| 1.07 | B4 |
| 0.87 | B5 |
| 0.99 | B6 |
| 1.21 | B7 |

These binders were tested against T3, human EpCAM expressed on cells (stably …) (assay: flow cytometry, CHO cells expressing human EpCAM).
Method: as §1, §2

| Kd [nM] | Binder |
| --- | --- |
| 2 | B1 |
| 1.6 | B2 |
| 1.14 | B3 |
| 1.69 | B4 |
| 1.89 | B5 |
| 2.59 | B6 |
| 1.96 | B7 |

What follows are binders tested against T4, human EpCAM protein adsorbed on the … (assay: ELISA, human EpCAM adsorbed on plate, anti-human Fc-HRP).

| EC50 [nM] | Binder |
| --- | --- |
| 0.47 | B1 |
| 0.33 | B2 |
| 0.47 | B3 |

Target: T5, cynomolgus EpCAM (Biacore)
Assay: SPR (Biacore), cyno EpCAM

| Kd [nM] | Binder |
| --- | --- |
| 45.2 | B4 |
| 7.22 | B5 |
| 35.2 | B6 |
| 1.17 | B7 |
